# In paper PMC4336329 (PLoS ONE, 2015):
# Out of some 310,000 compounds screened, about 2,200 (0.71%) showed an effect of 50% or more. Effects have a minus sign here. This is one part of the list.
# Biological target: human ether-à-go-go-related gene (hERG) potassium channel (human, UniProt Q12809)
# Test: primary screen, population patch clamp on CHO cells stably expressing hERG
# Sequence of human ether-à-go-go-related gene (hERG) potassium channel (Q12809 whole entry, looked up): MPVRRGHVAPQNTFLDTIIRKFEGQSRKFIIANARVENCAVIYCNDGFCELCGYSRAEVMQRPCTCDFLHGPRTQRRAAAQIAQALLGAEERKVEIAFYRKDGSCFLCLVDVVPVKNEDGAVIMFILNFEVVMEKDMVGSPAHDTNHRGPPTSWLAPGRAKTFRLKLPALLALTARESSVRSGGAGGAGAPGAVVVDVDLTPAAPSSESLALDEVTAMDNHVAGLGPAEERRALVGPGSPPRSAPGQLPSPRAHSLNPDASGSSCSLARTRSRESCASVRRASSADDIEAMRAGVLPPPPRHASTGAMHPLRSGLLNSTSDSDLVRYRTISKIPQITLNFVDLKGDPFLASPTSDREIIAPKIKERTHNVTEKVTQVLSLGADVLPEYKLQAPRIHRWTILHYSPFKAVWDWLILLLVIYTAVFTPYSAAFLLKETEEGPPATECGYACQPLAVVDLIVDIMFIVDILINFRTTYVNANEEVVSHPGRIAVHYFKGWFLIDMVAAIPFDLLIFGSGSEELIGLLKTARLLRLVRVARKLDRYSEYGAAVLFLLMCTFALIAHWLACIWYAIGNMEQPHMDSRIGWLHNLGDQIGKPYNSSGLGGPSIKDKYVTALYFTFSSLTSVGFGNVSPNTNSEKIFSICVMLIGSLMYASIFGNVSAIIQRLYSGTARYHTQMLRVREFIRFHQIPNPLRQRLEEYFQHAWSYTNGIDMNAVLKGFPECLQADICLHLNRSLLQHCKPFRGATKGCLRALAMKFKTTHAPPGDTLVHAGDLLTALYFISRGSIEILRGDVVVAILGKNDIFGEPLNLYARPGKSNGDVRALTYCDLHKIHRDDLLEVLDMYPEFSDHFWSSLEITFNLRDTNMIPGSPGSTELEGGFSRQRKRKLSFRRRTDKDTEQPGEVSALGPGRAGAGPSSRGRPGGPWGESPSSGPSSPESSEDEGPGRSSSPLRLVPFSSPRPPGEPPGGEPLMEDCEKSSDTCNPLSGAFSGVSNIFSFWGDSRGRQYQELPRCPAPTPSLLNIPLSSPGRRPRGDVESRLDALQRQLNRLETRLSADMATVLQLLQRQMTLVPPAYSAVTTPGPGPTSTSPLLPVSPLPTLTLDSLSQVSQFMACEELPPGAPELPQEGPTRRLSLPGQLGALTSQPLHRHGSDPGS
row,SMILES,"hERG current change (%, negative = inhibition) at 1uM [%]"
1,Cc1ccc(C(=O)NC(=S)Nc2c(C)ccc3nsnc23)cc1,0.803
2,Cc1c(Cl)cccc1-n1c(SCC(=O)N2CCC(C(=O)O)CC2)nnc1-c1ccncc1,26.3
3,c1ccc2cc(CSCc3nc4ccccc4[nH]3)ccc2c1,8.19
4,COc1cc(S(=O)(=O)N2CCOCC2)ccc1N,13.2
5,CCc1noc(C)c1C(=O)Nc1nc2ccc(S(C)(=O)=O)cc2s1,11.6
6,O=C(/C=C/c1ccccc1)N(Cc1cccc(Cl)c1)C1CCS(=O)(=O)C1 (stereo not drawn),10.2
7,Cc1ccc(NC(=O)CN2CCN(S(=O)(=O)c3cccs3)CC2)cc1S(=O)(=O)N(C)C,-2.13
8,O=C(CCC(=O)OCC(=O)c1cccc([N+](=O)[O-])c1)Nc1cccc(Cl)c1Cl,11.8
9,COCCN1Cc2cc3cc(C)ccc3nc2SC1=Nc1cccc(OC)c1,16.1
10,O=C(C1CCCN(S(=O)(=O)c2ccccc2)C1)N1CCCCCC1 (stereo not drawn),1.26
11,O=C(NNS(=O)(=O)c1ccc(Cl)cc1)c1cccs1,14.9
12,COc1ccc(S(=O)(=O)N2CCN(c3nc(C)cc(C)n3)CC2)cc1,7.75
13,CCOc1ccc2c(c1)sc(=NC(=O)C1CC1)n2C,10.6
14,COc1ccc(CN2CCNC(=O)C2CC(=O)N2CCc3ccccc3C2)c(OC)c1 (stereo not drawn),17.7
15,COc1cc(C2(c3ccc(O)c(OC)c3)C(=O)Nc3c(C)cc(Br)cc32)ccc1O,7.77
16,CCN1CCN(CCC2Oc3cc([N+](=O)[O-])ccc3NC2=O)CC1 (stereo not drawn),6.29
17,c1ccc2c(c1)CCN(c1nc3ccccc3n3cnnc13)C2,11
18,CCSc1nc(=S)n(CC)c(C)c1C(C)=O,3.19
19,COc1cc2cc(CN(CCCN3CCOCC3)Cc3nnnn3Cc3ccccc3)c(=O)[nH]c2cc1OC,1.31
20,COc1ccc(C(=O)Nc2nc(N)n(-c3ccccc3)n2)cc1OC,7.67
21,CN(CC(=O)Nc1ccc(F)cc1)CC(=O)N1CCCCCC1,9.66
22,CN(C)S(=O)(=O)c1cccc(NC(=S)N/N=C/C2CC=CCC2)c1 (stereo not drawn),6.89
23,O=C(c1ccccc1)C1CCN(C(=O)c2c(F)cccc2F)CC1,10.2
24,CCOc1ccc(CNC(=O)c2ccc(NC(=O)C3=CSCCO3)cc2)cc1,3.68
